# From ChEMBL document CHEMBL4888484, “Replenishing the malaria drug discovery pipeline: Screening and hit evaluation of the MMV Hit Generation Library 1 (HGL1) against asexual blood stage Plasmodium falciparum ,using a nano luciferase reporter read-out” (2022)
# About 540 (0.36%) of roughly 150,000 compounds showed an effect of 50% or more. The list shows a part of the results.
# Tested on: Plasmodium falciparum
# Test: Primary screen in NF54 nanoGlo assay, in single point, at 2uM, 72h; a lower Z score goes with more inhibition
# Type: functional, Erythrocyte
# Settings: timepoint 72 hour
Structure (SMILES),% Inhibition [%],Z score
O=C(c1c(F)cccc1Cl)N1CCCN([C@H]2CCOC2)CC1,6,-0.94
O=C(Nc1ccncc1)N1CCCCC[C@H]1C(F)(F)F,-31,3.67
Cc1noc(C)c1CN1C[C@H]2CC[C@@H](C1)N(Cc1ccc(Cl)cc1F)C2,-10,1.98
CC12CCN(S(N)(=O)=O)CC1C2(F)F (stereo not given),-5,0.47
CCc1ncc(S(=O)(=O)N[C@@]2(C#N)CC2(C)C)s1,-15,2.15
C[C@@H](CNc1ccccn1)N1CCN(C)CC1,-7,1.04
COc1ccc([C@H]2C[C@@H](c3ccc(Br)cc3)Nc3nnnn32)cc1OC,-15,2.03
c1ccc2c(c1)CCCN2Cc1nc2ccccc2o1,-7,1.48
CO[C@@H](C)C(=O)Nc1cc(C(F)(F)F)ccc1Br,-10,1.05
CO[C@@H](C)C(=O)Nc1cc(Cl)cc(Br)c1O,-3,0.61
Fc1cccnc1NCCCc1nnc2ccccn12,-12,1.22
CCOc1ccc(-c2nn3c(nc2=O)-c2ccccc2N[C@]3(C)CC)cc1,16,-1.67
Cc1csc(CNc2cc(C)c(Br)cn2)n1,-5,0.88
CCc1nnc(NC(=O)c2coc(CC3CC3)n2)s1,28,-3.11
Cc1ccc2nc(N3C[C@H](O)[C@@H](N4CCCC4)C3)cc(C)c2c1,-3,0.39
CC[C@H](C)[C@@H]1NC(=O)[C@@H]2C[C@H](NC(=O)c3cccnc3Oc3ccc(Cl)cc3)CN2C1=O,-13,1.53
O=C(O)[C@H]1CCCN1Cc1ccc2cccc(Cl)c2n1,4,-0.53
Cc1cc(NCc2noc(C3CCC3)n2)nc(Nc2cccc(O)c2)n1,-16,1.83
CCN(C(=O)[C@H]1CCCN(C(C)=O)C1)c1ccc(C(F)(F)F)cc1,-4,0.82
O=S(=O)(c1ccccc1)N1CCN(S(=O)(=O)c2ccccc2)C1,-3,0.54
COC[C@H](Nc1ccc(OC)nc1)C1CC1,-1,0.14
O=C(NC[C@H]1CC(=O)N(C2CCCC2)C1)c1cccc(OCc2cccc(F)c2)c1,-15,1.95

Structure (SMILES),% Inhibition [%],Z score
CCC(NS(=O)(=O)C1CCOC1C)c1nc(-c2ccccc2)c[nH]1 (stereo not given),3,-0.32
COc1ccc(-c2nc(NCc3ccccc3OC)[nH]c(=O)c2C#N)cc1,-11,2.02
C[C@H](NCc1cnc2ccccn12)c1ccccn1,-10,1.01
Cc1nc(C2=C(O)CN(c3ccc4c(c3)OCCO4)C2=N)sc1C,3,-0.42
COc1ccc(CNc2ccc(C(=O)N3CCCCC3)cc2S(=O)(=O)Nc2cccc(OC)c2)cc1,3,-0.33
Cc1cc(=O)[nH]c(NCCNC(=O)C2(C)CCC(C(=O)N(C)C)C2(C)C)n1 (stereo not given),-8,1.18
Cn1c(=O)c2c(ncn2Cc2csc(-c3ccco3)n2)n(C)c1=O,-8,1.41
CC(C)c1csc(C2CCCN(C(C)c3nnnn3C)C2)n1 (stereo not given),0,0.04
COc1c(C)cnc(CNS(=O)(=O)N(C)C2CCCCC2)c1C,-8,0.89
O=C1C[C@H]2CC[C@@H](CN1)N2C(=O)CN1CCOC1=O,-3,0.5
O=C1N[C@H](C(=O)NCCCOC2CCCC2)Cc2ccccc21,-1,0.19
COC(=O)C1(NC(=O)c2ccc3c(c2)OCO3)CCCCC1,-17,3.2
NC(=NCc1c(F)cc(Br)cc1F)N1CCOCC1,0,-0.09
CC(=O)N1CCN(C(=O)c2coc(CN(Cc3ccc(F)cc3)Cc3cc(C)ccc3C)n2)CC1,-1,0.11
CN1CC(=O)N[C@@H]2CN(C(=O)c3ccncc3)CC[C@@H]2OCc2cccc(c2)Oc2cccc(c2)CCC1=O,4,-0.55
CC(=O)c1cc(CN(C)C[C@H]2CCN(c3ccccc3)C2)n(C)c1,-20,2.96
COc1ccc(O[C@H]2CCN(C(=O)c3cnn4c3OCCC4)C2)nn1,-5,0.52
O=C(N[C@H]1CCOC[C@@H]1O)c1cccc2ccccc12,-5,0.88
Cc1ccc(-c2cc(C(=O)Nc3ncccc3Cl)c3ccccc3n2)s1,3,-0.34
O=C(NCCN1CCCC[C@@H]1CO)c1cccc(-c2nccs2)c1,-7,0.83
CC(C)(Nc1ccc2c(c1)OCCO2)c1nnnn1-c1ccccc1,1,-0.19
Cc1ccc(NC(=O)c2cnn(-c3ccc(C)c(Cl)c3)c2C2CCN(C(=O)OC(C)(C)C)CC2)c(C)c1,-4,0.64

Structure (SMILES),% Inhibition [%],Z score
CC(C)[C@H](Cn1nccn1)NC(=O)c1cccc2ccccc12,-5,0.77
COc1ccc(-c2nc3ncccc3o2)cc1-n1cnnc1,-21,2.87
Cc1cc(CN(C)C(=O)C2C3C(=O)N(Cc4ccc(C)c(C)c4)C[C@@]34C=C[C@@H]2O4)no1 (stereo not given in full),-8,1.48
Cc1noc(C)c1S(=O)(=O)N1CCCC[C@H](NC(=O)c2cnc(O)cn2)C1,-11,2.03
Cc1noc(C)c1[C@@H](C)CNC(=O)c1cnccc1N,-9,1.34
COc1ccc(CCN2C(=O)N[C@@H](CC(=O)Nc3ccccc3OC)C2=O)cc1,2,-0.2
CCN(CC)CC1(Nc2nc(N)nc(C)c2Cl)CC1,-10,1.68
CCc1ncnc(N(C)Cc2cc(C)on2)c1F,-6,1.08
CCN(Cc1nc2c(s1)C[C@@H](C)CC2)C(=O)c1ocnc1C1CC1,22,-2.63
FC(F)(F)c1nnc2ccc(Oc3ccc4ccccc4c3Br)nn12,3,-0.36
COCCN(C)C[C@H]1C[C@H](CO)CN(C(=O)c2ccc(Cl)cc2O)C1,-8,0.89
O=C1C(=O)N(CN2CCN(c3ccc(Cl)c(Cl)c3)CC2)c2ccccc21,1,-0.12
CO[C@H]1CN(c2ccnc(C(C)C)n2)C[C@H]1OC,-3,0.57
CCOCCCC(=O)Nc1ccc(O)c(COC(C)C)c1,-6,1.03
Cc1c(-c2ccccc2)ncn1C[C@@H](c1ccco1)N1CCCC1,-7,1.05
CCCC[C@H](NC(=O)c1cnc(-c2cccnc2)nc1)C(N)=O,-11,1.55
CN(C)C(=O)CC[C@H]1CCCN(Cc2cc3cc(F)ccc3n2C)C1,15,-1.92
O=C(NC[C@H]1CCCN(Cc2ccoc2)C1)C1CCOCC1,-5,0.93
CCc1ccc(Cn2nc(CC(N)=O)nc2C2CCOCC2)cc1,7,-0.93
CCc1onc(C)c1CNC(=O)Nc1cnn(-c2ccncc2)c1,15,-2.4
CCc1ccc(CNC(=O)c2cc(COc3ccc4sc(C)nc4c3)on2)nc1,-1,0.15
COCC(C)(C)N(C)C(=O)c1cc(Br)cc(C(=O)O)c1,-9,1.03

Structure (SMILES),% Inhibition [%],Z score
Cc1cnc(COc2c(F)cccc2F)o1,-4,0.37
Cc1cc(F)c2c(c1)CCCN2CC(=O)N1CCNC1=O,-1,0.12
CCOc1ccccc1CNC(=O)C1CCN(c2c(NC(=O)CC)c(C)nn2-c2ccccc2)CC1,-10,1.71
COCC(=O)N[C@@H](C)Cc1ccc2c(c1)CCO2,-4,0.67
COc1cc(C(C)N2C(=O)[C@H]3CCCCN3C2=O)ccc1F (stereo not given in full),8,-0.67
Cc1nc(-c2cccc(C(F)(F)F)c2)c(N)c(N2CCCC2)n1,-1,0.2
Nc1nnnn1CC(=O)NCc1cc(-c2ccccc2Cl)on1,-12,1.62
Cc1cncc(CNC(=O)CCC(=O)OC(C)(C)C)c1,-11,1.9
Cc1cc(OC(F)F)c(C(=O)N2CC[C@H](Oc3ccccc3Cl)C2)s1,-10,1.46
C[C@H]1Cc2cc(C(=O)N3CCOCC3)ccc2N1S(=O)(=O)c1ccccc1,12,-1.33
Cc1ncoc1C(=O)N1CCC[C@H](CN2CCN(c3ccccn3)CC2)C1,-13,1.76
CCn1cnc2c1CCN(C(=O)Nc1cn(C)nc1C(C)C)C2,-5,0.59
CC(C)Cc1ccc(S(=O)(=O)Nc2cc(C(=O)N3CCOCC3)ccc2N2CCNCC2)cc1,-9,0.88
Cc1nc2ccc(CNC(=O)c3cnc(-c4cccs4)nc3)cc2[nH]1,-12,1.71
Cc1ccc(NS(=O)(=O)c2ccc(C(=O)Nc3ccc4[nH]c(=O)[nH]c4c3)cc2)cc1C,2,-0.31
O=c1c2nnsc2ncn1CCN1CCOCC1,-33,3.83
Cc1cc2ncn(Cc3nnc(C4CCC4)n3C)c2cc1C,-13,1.34
Cc1sc2ccccc2c1-c1cn(Cc2nnc3n2CCC3)nn1,6,-0.75
CCn1ccc(C(=O)N[C@@H]2COCC[C@@H]2Oc2ccccc2)cc1=O,-10,1.57
